# Data: PubChem BioAssay (Tox21)
# Inconclusive means that the source gave no clear call. Such entries were picked first, then a sample of the others. Potencies of inconclusive entries are left out as doubtful fits. Active and inactive are the calls of the source. Unless noted, calls come from the whole dose curve; as a rule, active = well fitted cell-killing curve with a large enough effect in the repeat runs; inconclusive = weak or mixed curves, or effect the other way; inactive = no such curve, though single readings can be large or run the other way.
# What was measured:
# [1] = qHTS assay to identify small molecule antagonists of the sonic hedgehog signaling (Shh) pathway - cell viability counter screen (AID 1259367); note: nearly all actives have a fitted effect of over 55% in size
# Outline: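 Cytotoxicity was assessed in parallel with Shh reporter activity by measuring live-cell protease fluorescence (CellTiter-Fluor) in NIH/3T3 cells stably carrying Gli1-Luc, treated with compound under conditioned medium stimulation for 23 hr plus 1 hr reagent incubation.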
# [2] = qHTS assay to identify small molecule antagonists of the sonic hedgehog signaling (Shh) pathway (AID 1259369; calls by dose curve; note: nearly all actives have a fitted effect of over 45% in size)
# Outline: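 Cells are plated and held 4hr at 37 C, compounds (DMSO) are pinned in, conditioned medium is added to stimulate the pathway, and after 24hr luciferase reagent is added for 30min before luminescence is read.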
# Potency is the fitted concentration of half-maximal effect; tags give direction and shape of the fitted curve.
Structure (SMILES),Potency [1],Potency [2]
CC(CO)(CO)C(=O)O,inactive,–
CCCCN(CCN(CCCC)C(=O)N1CCOCC1)C(=O)N1CCOCC1,active: 26.6 µM,active: 13.3 µM
CC1(CN2CCC(n3c(=O)[nH]c4ccccc43)CC2)OCc2ccccc2-n2cccc21 (configuration not stated),inactive,active: 23.7 µM
O=C(/C=C/c1ccccc1)OCCc1ccccc1,inactive,–
C=Cc1ccc(S(=O)(=O)O)cc1,"inconclusive [cytotoxic, partial curve]",–
CN1C(CSCC(F)(F)F)Nc2cc(Cl)c(S(N)(=O)=O)cc2S1(=O)=O (configuration not stated),inactive,"inconclusive [inhibitor, partial curve]"
CCC(N)(CO)CO,inactive,"inconclusive [inhibitor, single point]"
CCOc1ccccc1C(N)=O,"inconclusive [cytotoxic, single point]","inconclusive [inhibitor, single point]"
O=C(OCC(COC(=O)c1cccnc1)(COC(=O)c1cccnc1)COC(=O)c1cccnc1)c1cccnc1,inactive,inactive
COC(=O)c1ccccc1,inactive,–
Cc1cccc(Br)c1,"inconclusive [cytotoxic, single point]",–
